In article PMC12040169 (PLOS Biology, 2025):
The other results are listed elsewhere or left out.

tested on: T1, C. trachomatis L2/434/Bu expressing GFP (CTL2-GFP); design: species or system HeLa; C. trachomatis total inclusion area by high-content imaging, normalised to DMSO; conditions: total inclusion area; 28.5 h, 10 µM; inhibitor
T1 construct: L2/434/Bu GFP intracellular growth in HeLa cells
In short: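 Imaging read-out: GFP inclusions and Hoechst nuclei captured by high-content imaging after fixation. Inclusion area/number = chlamydial growth; nuclei count = host cell viability. MIC calculated per earlier method.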

SMILES | % of control remaining
COc1ccc(N(CC(=O)Nc2c(F)cccc2F)S(=O)(=O)c2ccccc2)cc1 [CBK266883] | 113.649
Nc1nc2ccc(-c3nc4ccccc4o3)cc2s1 [CBK287846] | 33.2919
O=C(CSc1nc2ccccc2n1Cc1ccccc1)N/N=C/c1ccco1 [CBK263174] | 101.04
CS(=O)(=O)Nc1ccc2c(O)c(C(=O)NCc3ccc(Cl)cc3)c(=O)[nH]c2c1 [CBK017559] | 77.2534
CC1(CNC(=O)c2cc(-c3cccc(F)c3)no2)COC1 [CBK281751] | 114.11
O=C(N/N=C/c1cccc(Oc2ccccc2)c1)c1ccncc1 [CBK261955] | 137.183
O=C(Nc1ncccc1Cl)c1ccc(F)cc1 [CBK288215] | 95.6341
N#CCCN(C(=O)NCCN1CCOCC1)C1CCCCC1 [CBK156357] | 104.448
CC(C)(C)OC(=O)N1CCCC1C1COc2ccccc2C1=O (centres unmarked) [CBK281579] | 97.2093
O=C(Cn1nc(-c2cc3c(s2)CCC3)oc1=O)NC1CC1 [CBK283800] | 70.1156
CNS(=O)(=O)c1ccc(NC(=O)c2cc(-c3ccc4c(c3)OCO4)nc3ccccc23)cc1 [CBK267735] | 110.918
COCCOCCCC(=O)OCC1Cc2cc(F)ccc2O1 (centres unmarked) [CBK304886] | 104.038
N#Cc1[nH]nnc1-c1ccc(OC(F)(F)F)cc1 [CBK017386] | 99.4297
Oc1cccc(Sc2cc(C(F)(F)F)ccn2)c1 [CBK115273] | 92.5173
Cc1ccc2c(c1)CN(C(=O)C1CC1C)CC1(CCN(C)CC1)O2 (centres unmarked) [CBK284833] | 116.191
O=C(/C=C/c1ccccc1[N+](=O)[O-])NCCN1CCOCC1 [CBK265596] | 122.166
COc1ccc(CCNc2ncnc3sc4c(c23)CCCCC4)cc1OC [CBK074384] | 87.5902
CCn1nc(C)c(C2NC(=O)c3ccccc3N2)c1C (centres unmarked) [CBK288214] | 62.1681
COc1ccc(C(NC(=O)COc2c(Cl)cc(C(=O)O)cc2Cl)C(C)C)cc1 (centres unmarked) [CBK295344] | 86.1372
Cn1nc(C(C)(C)C)c2cc(C(=O)N3CCCc4occc4C3)cnc21 [CBK304713] | 58.7566
CN1C(=O)c2ccccc2OCCCCC[C@H]2NCCC[C@H]21 [CBK292075] | 100.685
Cc1ccc(NS(=O)(=O)c2cccc(C(=O)NS(=O)(=O)c3ccc(F)cc3F)c2)cc1 [CBK297776] | 97.7715
O=C(C1CCCC1)N1CCc2nc(-c3ccccc3)[nH]c(=O)c2C1 [CBK282331] | 102.261
O=C(CCN1CCOCC1)NNC(=O)Nc1cccc(C(F)(F)F)c1 [CBK269017] | 73.1267
Cc1cc(-c2nccnc2NCc2cccc(Cl)c2)cc(C)c1O [CBK036646] | 126.043
CC(C)Oc1ccccc1-c1nnc(SCC(=O)O)[nH]1 [CBK262702] | 92.7204
Cc1cc(N2CCCC(C(=O)N3CCOCC3)C2)nc(N)n1 (centres unmarked) [CBK305985] | 61.0625

SMILES | % of control remaining
O=C(CN1C(=O)c2ccccc2C1=O)N1CCN(Cc2ccc3c(c2)OCO3)CC1 [CBK074846] | 79.553
Cc1ccn(CCNC(=O)C2CCC(=O)N(CCc3ccccn3)C2)n1 (centres unmarked) [CBK306998] | 54.64
CN(CCN1CCCC1)c1nccc(N2CCN[C@H]3CS(=O)(=O)C[C@H]32)n1 [CBK306692] | 104.498
COc1cccc(CCC(=O)n2ccn(-c3ccc(N(C)C)cc3)c2=O)c1 [CBK106609] | 105.661
Cc1ccc(S(=O)(=O)N(CC(=O)O)c2ccc(C(C)C)cc2)cc1 [CBK287116] | 99.2241
CC1(C#N)CCCN(C(=O)NC2CCN(Cc3cccc(O)c3)CC2)C1 (centres unmarked) [CBK306787] | 106.377
COc1ccc(CNC(=O)c2cc(O)nc3ccccc23)cc1OC [CBK296763] | 128.287
CCOC(=O)C1(C2CCCCC2)CCN(C(=O)C2CCN(C)CC2)CC1 [CBK136948] | 84.6297
Cc1cc(C)c2c(n1)OC(N1CCOCC1)(C(F)(F)F)CC2=O (centres unmarked) [CBK267301] | 99.951
Cc1nc2nc(N)nn2c(C)c1CCC(=O)NCc1ccccc1 [CBK304986] | 73.9041
COc1cc(C(=O)N2CCN(C(=O)c3ccco3)CC2)cc(OC)c1OC [CBK144476] | 99.5718
CC(=O)NS(=O)(=O)c1ccc(NC(=N)Nc2nc(C)cc(C)n2)cc1 [CBK263117C] | 91.4357
CCOC(=O)C1(C2CCCCC2)CCN(C(=O)/C=C/c2ccc3c(c2)OCO3)CC1 [CBK136924] | 72.497
Oc1ccc(/C=N/c2ccc(O)c(-c3nc4ccccc4s3)c2)cc1O [CBK262473] | 103.253
Cc1nc2ccc(C(=O)N3CCN(C4CCCCC4)C(=O)C3)cc2[nH]1 [CBK282131] | 94.3284
CC1Cc2ccccc2N1C(=O)C1C2C=CC(O2)C1C(=O)O (centres unmarked) [CBK286891] | 127.736
O=C(CCn1c(C(F)F)cc2cccnc21)N1CCCCCC1 [CBK284983] | 108.922
FC(F)(F)c1ccnc(OCCN2CCNCC2)n1 [CBK113297] | 121.581
CN(C)Cc1ccccc1-n1ncc(CN2CCS(=O)(=O)CC2)n1 [CBK112877] | 72.6478
Cc1nnnn1C(Cc1cccc(F)c1)C(=O)N1CC(C)CC(C)C1 (centres unmarked) [CBK298262] | 87.2736
COc1cc2nc(N3CCC4(CCN(C(=O)C(c5ccccc5)C(C)C)C4)C3)nc(N)c2cc1OC (centres unmarked) [CBK160790] | 31.1607
CCOc1ccc(-c2ccc(C#N)c(=S)[nH]2)cc1 [CBK288470] | 57.4475
Cc1ccc(C2c3c(O)n[nH]c3CC(C)(O)C2C(=O)OCc2ccccc2)cc1 (centres unmarked) [CBK269417] | 91.5713
CCOC(=O)NC(Nc1cccc(C)n1)(C(F)(F)F)C(F)(F)F [CBK261343] | 104.536
CN(CC1CCN(C(=O)OC(C)(C)C)CC1)c1ccnc(-c2ccncc2)n1 [CBK166064] | 95.4808
COc1cccc(/C=C2/SC(=S)N(C)C2=O)c1OCCCOc1ccc(C)cc1C [CBK264446] | 95.5458
N#Cc1cccnc1N1CCC(NC(=O)c2cccnc2)CC1 [CBK304283] | 98.7427

SMILES | % of control remaining
CC(C)NC(=O)N[C@H]1CCN2C(=O)c3cc(-c4ccccc4F)ccc3NC(=O)[C@H]12 [CBK289335] | 103.314
CN1CCc2nc(SCC(=O)NC(C)(C)C)c(C#N)cc2C1 [CBK267445] | 101.586
Cc1cccn2cc(C(=O)NC(C)CN3CCCC3)nc12 (centres unmarked) [CBK281714] | 94.9954
O=S(=O)(Nc1ccc2ncccc2c1)c1ccc(OC(F)(F)F)cc1 [CBK045339] | 99.5552
COc1cnc(-c2cnn(C)c2)c(NC(=O)c2cc(C)oc2C)n1 [CBK145218] | 102.294
Cc1nn(CCNC(=O)C2CC(=O)N(CC(C)C)C2)c(C)c1C (centres unmarked) [CBK281630] | 115.996
Cc1[nH]c2ccccc2c1C(CC(=O)c1ccc(Br)cc1)C(=O)O (centres unmarked) [CBK269480] | 81.5274
Cc1[nH]c(=O)[nH]c(=O)c1Cc1ccccc1 [CBK113244] | 89.3792
COc1cc(C)nc(N2CCN(C(=O)CCc3ccsc3)CC2)n1 [CBK304572] | 36.0635
O=C(NC(=S)Nc1ccc(OCc2ccccc2)cc1)c1cccnc1 [CBK266224] | 125.005
COC(=O)c1sc2ncccc2c1NS(=O)(=O)c1cc(Br)c(Cl)s1 [CBK049973] | 98.1667
O=C(CN(c1cccc(Cl)c1)S(=O)(=O)c1ccccc1)NN=C1CCCCCC1 [CBK262519] | 77.4612
CC(=O)N1CCN(C(C(=O)O)c2c[nH]c3cc(NC(=O)c4ccccc4)ccc23)CC1 (centres unmarked) [CBK286680] | 71.9178
Cc1ccc(C(=O)N2C[C@H]3NC(=O)c4ccccc4C(=O)[C@@]3(C)C2)cc1 [CBK285315] | 90.8549
CCN(CC)C(=O)Cc1cc(C(=O)O)c2ccccc2n1 [CBK286942] | 77.5867
CC1(C)CC(N(Cc2ccc(F)cc2)Cc2c[nH]cn2)CC(C)(C)N1 [CBK282540] | 98.7369
Cc1nc(-c2ccc(N3CC(C(N)=O)CCC3C)nc2)[nH]c(=O)c1C (centres unmarked) [CBK306463] | 48.1915
O=C1CC(c2ccccc2)c2snc(C(=O)O)c2N1 (centres unmarked) [CBK287111] | 105.906
CC(=O)c1cccc(NS(=O)(=O)c2ccc(OC(F)(F)F)cc2)c1 [CBK043606] | 67.1853
COc1ccc2[nH]cc(CCNC(=O)N3CCN(CCN4CCOCC4)CC3)c2c1 [CBK155818] | 92.624
O=C(Nc1ccncc1)c1c(O)c2ccccc2[nH]c1=O [CBK288017] | 97.7585
O=C(O)c1cccc(NS(=O)(=O)c2ccc3c(c2)CN(C(=O)C(F)(F)F)CC3)c1 [CBK155709] | 94.9255
CC(CNC(=O)c1cncc(Br)c1)NC(=O)c1cncc(Br)c1 (centres unmarked) [CBK262040] | 77.7941
CC(=O)Nc1ccc(OCC(O)Cn2c(CO)nc3ccccc32)cc1 (centres unmarked) [CBK304549] | 34.3197
CC(C)c1ccc(-c2csc(Nc3cccc(C(=O)O)c3)n2)cc1 [CBK299880] | 90.822
Cc1cc(C)n(Cc2cccc(C(=O)NC(C)Cc3ccccn3)c2)n1 (centres unmarked) [CBK281449] | 86.2109
